The chains are these.
T1: UNK ZnF1-3 (human, UniProt Q9C0B0 31-174)
T1 sequence: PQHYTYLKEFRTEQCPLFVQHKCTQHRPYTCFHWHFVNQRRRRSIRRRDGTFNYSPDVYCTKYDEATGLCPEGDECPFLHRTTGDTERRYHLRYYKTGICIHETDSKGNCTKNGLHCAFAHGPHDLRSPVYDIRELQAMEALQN

B1: 213125139_213139073_470_CDS_ENSG00000143494_ENST00000366968|human|control|control (ssRNA)
RNA: GGGAGUUCUACAGUCCGACGAUCGUGAUUAUAUUGUAGGGUCUUCAUGUAAUUCUGGAUCGCCUGGAGCCAGUCUGGGAUCGUCAUCGACAGCCUGUAGUUUGGGACCUGGGGUAUUGAAGGCUUUGCCAAGAAGGCGGCGUUCAACAGAGGAUUGAGCAUCA
B2: chr2:230653580:230653581:-_ENSG00000153827_ENST00000389045|hu_hu|motif|central (ssRNA)
RNA: GGGAGUUCUACAGUCCGACGAUCAGUAAGCCAUGUUGGGAUGUUUCCUGUCAUGAUUACUAAAGGAUCUUGAAGUUGCCGGUUUGCUUUUGCUGUUAACUUACUGUUAAUAAAUUCACUAGUUGGAAUAAUUUCCUUGCACAUCAACAGAGGAUUGAGCAUCA
B3: chr5:132203191:132203192:+_ENSG00000164405_ENST00000378667|hu_mus|FALSE|FALSE (ssRNA)
RNA: GGGAGUUCUACAGUCCGACGAUCAUUCUUCCUUUUCGACUGCUCAAACUCCUGGUUGCCCCAUGUGUAGAUCAGGUAGACCACUACAAACGGCGGCGCCACGCGCAGGAUGCGCUCGCGAGUGCGGCGCAGCACGUUGGGGAUCAACAGAGGAUUGAGCAUCA
B4: 106035800_106035920_799_3pUTR_ENSMUSG00000054720_ENSMUST00000067924|mouse|control|control (ssRNA)
RNA: GGGAGUUCUACAGUCCGACGAUCCUCCGGACACUUCGGAGAGAGCCCGUGUGGUCCACGGGGAGUCAAAGCACUUCCCCAGGAUGGAGAUGAAAUGUUCUAUUUUGGAACUGGAUCCGGGGAAUUUGAACCAGAAGUUGCUACCAACAGAGGAUUGAGCAUCA
B5: chr7:149068622:149068623:-_ENSMUSG00000025139_ENSMUST00000001950|mus_hu|mus_mus_mus_hu_False|18_58 (ssRNA)
RNA: GGGAGUUCUACAGUCCGACGAUCGUGAGGCCUCUGAGUGUGGCUUGUGGUCUGUCCUGGGUUAGAGUUGUUAAUAUCACUAAGUGGACCAUCUAGAACGUUCCAGUCCCGCCUGACCAUCCACCCUCCAAUGGAGAAGAAAUCCAACAGAGGAUUGAGCAUCA
B6: chr1:60041781:60041782:+_ENSMUSG00000041040_ENSMUST00000036540|mus_hu|mus_mus_mus_hu_False|48_68 (ssRNA)
RNA: GGGAGUUCUACAGUCCGACGAUCAAGUUUACAAUAGUAAAGUAAAUGCAGUAGUGGCAAAUUUUCUUUACUUUAGUUUCACAAAAGAAAACCUCAGUAACCCAGUCCUAGUCUUGGACAUAGUGAAAGCUAUAAAUUCUGACUCAACAGAGGAUUGAGCAUCA
B7: chr7:135839355:135839356:+_ENSMUSG00000042105_ENSMUST00000151237|mus_mus|FALSE|FALSE (ssRNA)
RNA: GGGAGUUCUACAGUCCGACGAUCAUGACGGGCAAGCCCAUACUUAAGAAUUUGAGAGAGAGAGAAAAAAAAAUGUAUAUACGGGAGAGAGUGGGGUCAAAGGAAAAAUACAGUUUUACCAUUGUUAAUUCUCAACUUCAGAGACAACAGAGGAUUGAGCAUCA
B8: 33466408_33530590_1544_3pUTR_ENSMUSG00000028274_ENSMUST00000108153|mouse|control|control (ssRNA)
RNA: GGGAGUUCUACAGUCCGACGAUCUUCUGUGGAAGCAACCCUUCUCCUCCCAUUCUUGUUAUCUUAAGUCGAAAAUCCACAGAGUUUAGACUGGGAGGUUUCCAUUUCAAAAUGUCAUCACAUCGACCAGGCUUGUAUUUUCCACAACAGAGGAUUGAGCAUCA
B9: chr12:28026325:28026326:-_ENSMUSG00000063632_ENSMUST00000079063|mus_hu|FALSE|FALSE (ssRNA)
RNA: GGGAGUUCUACAGUCCGACGAUCCUGCUGCUCGCUGGCGCUGUGCGCGCUUUGAGAGAAAUUCAAGCUCAGGUCGAACAUCAGGUCGUCGGCGUCCUCGCCGCUGCUGCCGCUGCUGCUGCCGCUGCUGCUGGACGAGGAGGUCAACAGAGGAUUGAGCAUCA
B10: chr4:82150701:82150702:-_ENSMUSG00000008575_ENSMUST00000064770|mus_mus|FALSE|FALSE (ssRNA)
RNA: GGGAGUUCUACAGUCCGACGAUCUAAAACGCACUUUCCCGGAGAUGCCCAAGAAAAUCUUCCAGAAGCAAGGAUUUCAUCUAUUCAUUUUACAGUCAUCUGAGCCCAGCGAUGCGAUCAAUCAGGACGGGGCACUGCGCCGGUCAACAGAGGAUUGAGCAUCA
B11: 41688753_41688873_826_CDS_ENSG00000137806_ENST00000260361|human|control|control (ssRNA)
RNA: GGGAGUUCUACAGUCCGACGAUCGCUCAGAGUUCCAUAUAGCAGUGCACUUUGGUUAUUCUUGCCCAUUUUCAAAAACACUUCACUUCUGCCUCCAAUCGUCUUAUCAGAAGUCACUGUCCACUUAUCCAAAUCUUCUUUCCCCAACAGAGGAUUGAGCAUCA
B12: chr5:44151052:44151053:-_ENSMUSG00000039753_ENSMUST00000047857|mus_mus|motif|central (ssRNA)
RNA: GGGAGUUCUACAGUCCGACGAUCGUCGGUCUGGGUAAGAUCCAGAUGUUCCAGGUUAGGACAAAGCUCUAAAAUCUGCCGGACCAUUUUGCUGGAGACUGCAGAGCUGUACGCUAACACUAAAGUUUUUACAGAGGUACCAACCAACAGAGGAUUGAGCAUCA
B13: chr3:10015032:10015033:+_ENSMUSG00000027533_ENSMUST00000029046|mus_mus|mus_mus_mus_hu_True|18_98 (ssRNA)
RNA: GGGAGUUCUACAGUCCGACGAUCGUUUUUACCAUCACACGUAAUGAUACAAUCUGGCUUGGCCAUUGCGCCCAUUUUUCGCAAAGCUAUUCCCACUCCUAGCUCCUUCAUGUAUUCCUCAAAGCCGUUGCUGUCCACCAGGCGCAACAGAGGAUUGAGCAUCA
B14: chr13:42895476:42895477:+_ENSG00000023516_ENST00000025301|hu_mus|FALSE|FALSE (ssRNA)
RNA: GGGAGUUCUACAGUCCGACGAUCGUUGCACUGAAUGAAGAACACUGAGUGAGCGCUGCUUGGCUUCACCAGAAUGCAAAGGAACCAGGAGCAGAGUUAAAGCUCGCCUCAAAUAACUACACCAGCAGCUGAAACACGCCUGGGCAACAGAGGAUUGAGCAUCA
B15: chr5:128448638:128448639:+_ENSG00000066583_ENST00000173527|hu_mus|hu_hu_hu_mus_False|28_98 (ssRNA)
RNA: GGGAGUUCUACAGUCCGACGAUCGGCACUCGCCUUAAUUAGAUUCUGAAUUUCCUUGAACUUCGGGUGGUCUUUGUCAGCCACCAGCUGUAGGAGGACAGCCUCACUCGUGGUCACGAUGAUCCCAGUGCGGGCAAGACGCUCCAACAGAGGAUUGAGCAUCA
B16: chr5:145888941:145888942:+_ENSMUSG00000029622_ENSMUST00000085679|mus_mus|FALSE|FALSE (ssRNA)
RNA: GGGAGUUCUACAGUCCGACGAUCCUUUGGGUUUUUGUUUCUUGUAUUUUUUGGGUUUUGGGUUGUUUGUUUUUUUUUUUUUUUUUUUUUUUUUUGGCCUUGUUUUUGGUUUGCAAUAAAGAGUAUUUCUUUAAAAGGCACAUUCAACAGAGGAUUGAGCAUCA
B17: 183498046_183498166_730_3pUTR_ENSG00000116698_ENST00000515829|human|control|control (ssRNA)
RNA: GGGAGUUCUACAGUCCGACGAUCUUUAGAAAGUGCUUUUUGCAGAUUAGUGGAGGCAGCUGGGAAAGGGAACUUCACAGCAAUGCUUCUGCAGUAGUAGAAAAUUGUGGUCAGAUGGUCUCCUUUGGAAGAAGCUAAGAUAGCCAACAGAGGAUUGAGCAUCA
B18: 77267893_77268013_3409_CDS_ENSMUSG00000037926_ENSMUST00000037912|mouse|control|control (ssRNA)
RNA: GGGAGUUCUACAGUCCGACGAUCGUCUUGCGGGCUACUUAACAUAGGGUUUGGGUCAGCGGGCCUGUCACACUCUGAGGAAGAAUGAGGCAGAGGUAGCACUUGGGGAUGCAGAGAAACUUGACUGGGCUCCAGAGUCCUGUUCAACAGAGGAUUGAGCAUCA
B19: chr2:26332712:26332713:+_ENSG00000084733_ENST00000264710|hu_mus|FALSE|FALSE (ssRNA)
RNA: GGGAGUUCUACAGUCCGACGAUCGUUUCUAAGCCACUUGCUGAUGUUCUCAAAGCUUUUACCGUUGGUGAUGUCAUACACUAGCAUGAUGCCCAUUGCUCCUCUGUAGUAGGAGGUUGUGAUGGUGUGAAAUCGCUCCUGGCCCAACAGAGGAUUGAGCAUCA
B20: chr9:95013113:95013114:-_ENSG00000196305_ENST00000443024|hu_hu|hu_hu_hu_mus_False|8_48 (ssRNA)
RNA: GGGAGUUCUACAGUCCGACGAUCCUCAGUCAGAAAGGGCGUGUAAGGGGCCAUCAGUCUGCACAGAGAAAGCAGGACACUGAACAGGGUUUCUAGGGCCAUGACACAGUCUUCCACCCCACUCUCACCCUUUAAUCUCCUCCUCAACAGAGGAUUGAGCAUCA
B21: chrX:71549762:71549763:+_ENSMUSG00000019087_ENSMUST00000019231|mus_mus|mus_mus_mus_hu_False|58_58 (ssRNA)
RNA: GGGAGUUCUACAGUCCGACGAUCAAACCCGUGUACUUCUUAUUGUUAGCACAACAUCACCAGAAAACGAUAACGACAGCUAAGCUGGACAGACAGUUAAGUAGUACUUCCACACUCCCAAACUCAGGGAGCCCUAUAACCUUACAACAGAGGAUUGAGCAUCA
B22: chr4:148554205:148554206:-_ENSMUSG00000063077_ENSMUST00000060537|mus_mus|FALSE|FALSE (ssRNA)
RNA: GGGAGUUCUACAGUCCGACGAUCUAGCCACCAAAGAGAAAGAGAAAGAGAGACAGAGACAGACAGACACACACACACACACAUACAGAGAAAGAGAGAGAGUCAGAGACAGACACAGAGAGAGACAGACAGACACCAGACACACAACAGAGGAUUGAGCAUCA

The list shows a part of the results.

In the assay the target is T1, UNK ZnF1-3. As to the kind of experiment: nsRBNS (natural sequence RNA bind-n-seq); RBNS binding buffer (assumed for nsRBNS): 25 mM Tris pH 7.5, 150 mM KCl, 3 mM MgCl2, 0.01% Triton X-100, 500 ug/ml BSA, 20 U/ml SUPERase-In, 4 C; UNK is unkempt and MSI1 is Musashi-1; names of the RNAs are library labels; protein concentration not given here; high values mean tight binding.
B1: the binding signal is 0.943 enrichment R. Turning to B2, the binding signal turned out to be 0.632 enrichment R. The same measure for B3: 0.735 enrichment R.

As for B4, the binding signal was 0.74 enrichment R. In turn, B5 showed a binding signal of 0.94 enrichment R. To B6 belongs 0.652 enrichment R; to B7, 2.76 enrichment R. B8: the binding signal worked out at 0.827 enrichment R. For the molecule B9, the binding signal was found to be 0.753 enrichment R.

B10: the binding signal was found to be 1.56 enrichment R.

In turn, B11 yielded a binding signal of 0.856 enrichment R. The molecule B12 came in with a binding signal of 1.06 enrichment R. B13 registered a binding signal of 0.697 enrichment R. B14 registered a binding signal of 1.65 enrichment R. The same measure for B15: 0.717 enrichment R; for B16: 0.0872 enrichment R; for B17: 1.36 enrichment R.

In turn, B18 showed a binding signal of 1.67 enrichment R.

For B19, the binding signal turned out to be 0.653 enrichment R. The same measure for B20: 0.934 enrichment R; for B21: 1.08 enrichment R; for B22: 2.83 enrichment R.
